PubChem BioAssay AID624172 (National Center for Advancing Translational Sciences (NCATS), 2012)
Among all 380,000 compounds or so, about 25 (0.007%) were called active. Inconclusive results, whose numbers are uncertain, are shown with a selection of clear calls. Calls follow the shape of the dose curve; as a rule, active = well fitted activation curve with a large enough effect; inconclusive = small, poorly fitted or top-dose-only effect; inactive = no such curve, though single readings can be large or run the other way. Potencies of inconclusive entries are left out as doubtful fits.

Molecular target: Glucagon-like peptide 1 receptor (Homo sapiens) (UniProt P43220)
Test: qHTS of GLP-1 Receptor Agonists
Conditions: HEK293 GLP-1R CRE-luciferase, luminescence, 4-6 h, cells express a hypersensitive GLP-1R form; series mostly up to 45.6 µM
Potency is read from the fitted curve at half-maximal effect; tags tell the direction and shape of the fitted curve.

Sequence of UniProt P43220 (P43220 whole entry, looked up): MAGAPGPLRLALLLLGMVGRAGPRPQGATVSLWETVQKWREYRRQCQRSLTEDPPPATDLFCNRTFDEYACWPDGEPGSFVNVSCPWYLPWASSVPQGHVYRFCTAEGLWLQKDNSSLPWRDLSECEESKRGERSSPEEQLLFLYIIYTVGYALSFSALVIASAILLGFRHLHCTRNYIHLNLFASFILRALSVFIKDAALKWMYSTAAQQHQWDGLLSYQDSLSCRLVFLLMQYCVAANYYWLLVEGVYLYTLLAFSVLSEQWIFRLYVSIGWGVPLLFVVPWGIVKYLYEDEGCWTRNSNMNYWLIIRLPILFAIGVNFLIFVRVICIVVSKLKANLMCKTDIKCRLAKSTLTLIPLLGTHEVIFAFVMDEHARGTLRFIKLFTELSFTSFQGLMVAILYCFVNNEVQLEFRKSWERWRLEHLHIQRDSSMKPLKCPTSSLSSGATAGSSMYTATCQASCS

| SMILES | Potency |
| --- | --- |
| COc1cccc(OC)c1/C(O)=C(\C#N)c1nc2ccccc2[nH]1 | inactive |
| COc1ccc(C(=O)COC(=O)COc2cccc3c2OC(C)(C)C3)c(OC)c1 | inactive |
| O=C1CCCN1CCCNc1ncnc2c1[nH]c1ccc(Cl)cc12 | inconclusive [activator, partial curve, poor fit] |
| COc1ccc(N2Cc3ccccc3C2=NC(=O)c2cccc([N+](=O)[O-])c2)cc1 | inconclusive [activator, single point] |
| N#Cc1nc(-c2cccs2)oc1NCc1ccccc1Cl | inconclusive [activator, single point] |
| CCOc1ccc(-n2c(C)nc3cc(C(=O)NCCN4CCOCC4)ccc32)cc1 | inconclusive [activator, single point] |
| COc1cc2cc(C)nc(Cc3cccc4ccccc34)c2cc1OC | inconclusive [activator, single point] |
| Nn1c(Cc2cccc3ccccc23)nnc1SCc1ccccc1Cl | inconclusive [activator, single point] |
| Cc1ccc(OCCN2CCNCC2)c([N+](=O)[O-])c1 | inactive |
| O=[N+]([O-])c1ccc(N2CCNCC2)cc1NCc1cccnc1 | inconclusive [activator, partial curve] |
| CCC1C(=O)Nc2nc(-c3ccccc3)c(-c3ccccc3)n2N=C1C (stereo not given) | inactive |
| CCCc1nc(N)c(C#N)c(N)c1C#N | inconclusive [activator, partial curve, poor fit] |
| Cc1cc(C(F)F)n2ncc(C(=O)NCc3ccccc3)c2n1 | inconclusive [activator, single point] |
| CCOc1ccc(/C=C2/Sc3ccc(C(=O)NCC4CCCO4)cc3N(C)C2=O)cc1OC (stereo not given) | inconclusive [activator, partial curve, poor fit] |
| CCOC(=O)c1[nH]c(C)c(C(=O)Nc2cc(OC)ccc2OC)c1C | inconclusive [activator, partial curve, poor fit] |
| CCOc1ccc(Oc2c(/C=N/NC(N)=O)c(C)nn2-c2ccccc2)cc1 | inconclusive [activator, partial curve] |
| CCc1ccc(-c2cc(C)no2)cc1S(=O)(=O)NCCc1ccccc1 | inconclusive [activator, single point] |
| COc1ccc(-c2cnc3c(NC(C)=O)cc(-c4cccc(NS(C)(=O)=O)c4)cn23)cc1OC | inconclusive [activator, partial curve] |
| NC[C@H](O)c1ccc(O)c(O)c1 | inconclusive [activator, full curve, poor fit] |
| O=c1cc(C(Cl)(Cl)Cl)oc2c1ccc1ccccc12 | inconclusive [activator, partial curve, poor fit] |
| Cc1cccc(-c2noc(-c3csc([C@@H]4C[C@H](O)[C@@H](CO)O4)n3)n2)c1 | inactive |
| S=C(Nc1ccccc1Cl)N(Cc1ccccc1)Cc1ccccn1 | inactive |

| SMILES | Potency |
| --- | --- |
| CCN1CCN(C(c2ccccc2)c2nnnn2Cc2ccc3c(c2)OCO3)CC1 (stereo not given) | inactive |
| C[C@@H]1CN([C@H](C)CO)C(=O)CCCn2nncc2CO[C@H]1CN(C)Cc1ccc2c(c1)OCCO2 | inconclusive [activator, partial curve, poor fit] |
| COC(C)c1oc2c(C)c3oc(=O)cc(C)c3cc2c1C (stereo not given) | inconclusive [activator, partial curve, poor fit] |
| CCOC(=O)c1cc(-c2ccc(OC)cc2)nc2c1c(C)nn2CCC#N | inconclusive [activator, partial curve, poor fit] |
| CCC(=O)NNC(=O)CSc1nnc(-c2ccccc2)c(-c2ccccc2)n1 | inactive |
| COc1ccc(-c2cc(C(=O)Nc3sc4c(c3C#N)CCCC4)c3ccccc3n2)cc1 | inactive |
| COc1cc2c(cc1OC)C(c1cccc([N+](=O)[O-])c1)=NCC2 | inconclusive [activator, partial curve] |
| CN1C(C(=O)Nc2ccccn2)C(=O)c2sc(Cl)cc2S1(=O)=O (stereo not given) | inconclusive [activator, full curve, poor fit] |
| COc1cc(/C=N/Nc2ncnc3sc4c(c23)CCC4)ccc1O | inconclusive [activator, partial curve, poor fit] |
| COc1ccc(/C=N/n2c(-c3ccc(C)cc3)n[nH]c2=S)cc1OC | inconclusive [activator, partial curve, poor fit] |
| CCOC(=O)CN(c1sc(C)c(C)c1C(=O)OCC)S(=O)(=O)c1ccc(C)cc1 | inactive |
| COc1ccc2c(c1)c1ncn(CCCN3CCOCC3)c(=O)c1n2C | inconclusive [activator, partial curve, poor fit] |
| CC(C)Cc1nnc(NC(=O)c2cc([N+](=O)[O-])ccc2N2CCOCC2)s1 | inconclusive [activator, partial curve, poor fit] |
| O=C(OCc1csc(-c2ccccc2)n1)c1ccccc1O | inconclusive [activator, partial curve, poor fit] |
| COc1cc(C2C(=O)c3ccccc3C2=O)ccc1O | inconclusive [activator, single point] |
| CCOc1ccc(Br)cc1S(=O)(=O)Nc1ccc(C(=O)OCC(=O)N(C)c2ccccc2)cc1 | inconclusive [activator, full curve] |
| COc1ccc(OC)c(NC(=O)CN(c2ccc(OC)c(Cl)c2)S(C)(=O)=O)c1 | inconclusive [activator, single point] |
| C=CCOc1ccc(/C=C/C(=O)OCC(=O)NCC2CCCCC2)cc1 | inconclusive [activator, single point] |
| COc1cc(Cl)c(C)cc1NC(=O)c1cccc(OC)c1OC | inconclusive [activator, partial curve, poor fit] |
| CC(C)=CCC[C@](C)(OC1OC(COC2OCC(O)C(O)C2O)C(O)C(O)C1O)C1CC[C@]2(C)C1C(O)CC1[C@@]3(C)CCC(O[C@@H]4O[C@H](CO)C(O)C(O)C4O[C@@H]4OC(CO)C(O)C(O)C4O)C(C)(C)C3CC[C@]12C (stereo not given in full) | inactive |
| Cc1ccccc1NS(=O)(=O)c1ccc2[nH]c3c(c2c1)CCCCC3 | inactive |
| COc1ccc(C2CC(C(F)(F)F)n3ncc(C(=O)NCC4CCCO4)c3N2)cc1OC (stereo not given) | inconclusive [activator, single point] |

| SMILES | Potency |
| --- | --- |
| COc1ccc(-c2c(-c3ccsc3)oc3ccc(N4CCOCC4)cc23)cn1 | inconclusive [activator, single point] |
| COC(=O)c1ccccc1NC(=O)COc1ccc(S(=O)(=O)NC(C)C)cc1 | inconclusive [activator, full curve, poor fit] |
| CC1CCCN(Cc2ccc(OCc3ccccc3)cc2)C1 (stereo not given) | inconclusive [activator, partial curve] |
| CCOCCCn1c(=NC(=O)c2cccnc2)c(C(=O)OCC)cc2c(=O)n3ccccc3nc21 | inconclusive [activator, partial curve] |
| COc1cc(-c2noc(C)c2C#Cc2ccc(N)cc2)cc(OC)c1OC | inconclusive [activator, partial curve] |
| CCN(c1ccccc1)c1nc(Cl)nc2c1cnn2C | inconclusive [activator, partial curve] |
| N#Cc1nc(-c2cccs2)oc1NCc1ccco1 | inconclusive [activator, single point] |
| COc1cc2c(cc1OC)/C(=C/C(=O)c1cccc([N+](=O)[O-])c1)NCC2 | inconclusive [activator, full curve, poor fit] |
| CN(c1ccccc1)c1nc(-n2ccnc2)nc(-n2ccnc2)n1 | inconclusive [activator, partial curve, poor fit] |
| CCCn1c2c(c(O)c(C(=O)NCCCN(CC)CC)c1=O)CCCC2 | inconclusive [activator, single point] |
| COc1ccc(CCN(C)C(=O)CCc2nnc(-c3ccccc3)o2)cc1OC | inconclusive [activator, partial curve] |
| CCOc1cccc(-c2cc(=O)[nH][nH]2)c1 | inactive |
| CS(=O)(=O)N(CC(=O)N/N=C/c1cc2c(cc1Br)OCO2)c1ccccc1Br | inconclusive [activator, partial curve, poor fit] |
| CCOc1ccc(-c2nnc(-c3ccco3)o2)cc1OCC | inconclusive [activator, full curve] |
| C=CCNc1oc(-c2cccc(F)c2)nc1C#N | inactive |
| CCOc1ccc(C(CC(=O)Nc2cc(C)c(Cl)cc2OC)N2Cc3ccccc3C2=O)cc1OC (stereo not given) | inactive |
| O=C(Cn1cc(C(F)(F)F)ccc1=O)NCCc1ccc(Cl)cc1Cl | inactive |
| O=c1cc(-c2ccccc2)oc2ccccc12 | inconclusive [activator, full curve, poor fit] |
| CC(C)Oc1cccc(C(=O)NC(=S)Nc2cccnc2)c1 | inactive |
| C/C(Cl)=C\Cn1c(Nc2ccccc2)nc2c1c(=O)n(C)c(=O)n2C | inconclusive [activator, partial curve, poor fit] |
| COc1ccc(/C=C2\CCc3ccccc3C2=O)c(OC)c1OC | inconclusive [activator, partial curve] |
